27 molecules from the supplement of paper PMC11369174, “Proteome-scale characterisation of motif-based interactome rewiring by disease mutations” (Molecular Systems Biology, 2024) can be followed below.

This is one part of the list. Values come from read counts of a selection and are noisy.

To fix the notation:
T1: DOK1_PTB__Q99704_151_256
T1 chain: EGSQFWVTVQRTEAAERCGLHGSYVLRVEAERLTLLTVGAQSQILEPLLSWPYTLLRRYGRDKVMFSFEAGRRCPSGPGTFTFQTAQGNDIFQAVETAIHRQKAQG

T2: CSK21_Pkinase__P68400_1_335
T2 chain: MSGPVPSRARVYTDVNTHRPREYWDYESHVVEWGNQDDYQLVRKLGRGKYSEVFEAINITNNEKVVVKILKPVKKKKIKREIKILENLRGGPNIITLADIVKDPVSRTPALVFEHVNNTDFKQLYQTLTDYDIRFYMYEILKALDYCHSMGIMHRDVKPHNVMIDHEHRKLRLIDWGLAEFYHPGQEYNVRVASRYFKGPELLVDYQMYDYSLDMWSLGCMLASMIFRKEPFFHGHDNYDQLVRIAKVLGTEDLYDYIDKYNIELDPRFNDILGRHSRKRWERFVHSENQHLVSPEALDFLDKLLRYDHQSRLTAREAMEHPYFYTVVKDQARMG

T3: EPHA3_Pkinase__P29320_606_947
T3 chain: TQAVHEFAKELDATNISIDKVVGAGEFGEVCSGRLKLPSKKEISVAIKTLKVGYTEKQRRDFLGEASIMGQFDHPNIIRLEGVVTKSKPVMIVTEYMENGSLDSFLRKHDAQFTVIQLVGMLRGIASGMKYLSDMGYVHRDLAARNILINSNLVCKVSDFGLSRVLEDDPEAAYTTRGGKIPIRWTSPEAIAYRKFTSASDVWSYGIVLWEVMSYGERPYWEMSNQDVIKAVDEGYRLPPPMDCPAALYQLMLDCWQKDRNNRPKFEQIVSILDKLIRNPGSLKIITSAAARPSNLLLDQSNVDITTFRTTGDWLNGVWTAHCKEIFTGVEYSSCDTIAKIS

T4: EPHB2_Pkinase__P29323_604_898
T4 chain: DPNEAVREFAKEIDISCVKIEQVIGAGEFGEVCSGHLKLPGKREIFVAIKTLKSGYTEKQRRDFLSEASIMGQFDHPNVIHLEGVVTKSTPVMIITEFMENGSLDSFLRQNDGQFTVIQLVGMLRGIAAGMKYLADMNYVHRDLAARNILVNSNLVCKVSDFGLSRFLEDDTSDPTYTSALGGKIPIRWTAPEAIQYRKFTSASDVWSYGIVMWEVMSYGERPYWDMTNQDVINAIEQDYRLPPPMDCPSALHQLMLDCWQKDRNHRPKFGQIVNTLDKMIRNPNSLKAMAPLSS

Sequence of MK08_Pkinase__P45983_1_363 (chain, as listed by the source): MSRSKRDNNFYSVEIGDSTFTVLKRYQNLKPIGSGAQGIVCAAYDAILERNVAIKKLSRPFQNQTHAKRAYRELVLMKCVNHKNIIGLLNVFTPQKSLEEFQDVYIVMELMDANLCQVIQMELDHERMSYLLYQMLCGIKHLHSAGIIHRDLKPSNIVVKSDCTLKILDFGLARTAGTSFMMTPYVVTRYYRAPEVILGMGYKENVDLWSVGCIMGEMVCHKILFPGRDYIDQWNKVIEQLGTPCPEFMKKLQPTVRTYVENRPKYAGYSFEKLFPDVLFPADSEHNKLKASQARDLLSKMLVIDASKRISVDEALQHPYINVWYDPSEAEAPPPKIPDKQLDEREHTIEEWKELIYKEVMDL

One assay addresses DMD_WW-EF__P11532_3055_3088. Description: mean normalised NGS count of phage-displayed peptide after selection on bait (% of reads); baits are purified protein domains named by gene / domain / UniProt id / residues; peptides come from disordered regions of human proteins; higher = stronger enrichment / binding. The following applies: replicate selections in which the peptide was seen: 3.
Regarding QPPPYDHLFEVALPKT [TSC1 600-615 wt], the “mean normalised NGS count” value was found to be 0.0353.

As to YHNYLPPPYPGSSQSQ [RUNX2 418-433 mut Q13950.T420N], the “mean normalised NGS count” value was 0.0551.

A further assay deals with T1, DOK1_PTB__Q99704_151_256. The description is as above. The settings on record: replicate selections in which the peptide was seen: 5.
Take MDALLGGSEIWRDINF [TYR 185-200 mut P14679.D199N]: the “mean normalised NGS count” value was 0.464.

With MDALLGGSEIWRDIDF [TYR 185-200 wt], the “mean normalised NGS count” value is 1.02.

Take WTDLENSIVSVERMQH [ABCC6 1223-1238 mut O95255.D1238H]: the “mean normalised NGS count” value was 2.34.

Regarding WTDLENSIVSVERMQD [ABCC6 1223-1238 wt], the “mean normalised NGS count” value stood at 2.59.

As for MDALLGGYEIWRDIDF [TYR 185-200 mut P14679.S192Y], the “mean normalised NGS count” value turned out to be 11.1.

In a further assay the target is DMD_WW-EF__P11532_3055_3088. The description is as above. The following applies: replicate selections in which the peptide was seen: 4.
In the case of ATTHYHTYLPPPYPGS [RUNX2 414-429 wt], the “mean normalised NGS count” value turned out to be 0.131.

In the case of PPPYLRTEFHQHQQQH [AUTS2 516-531 mut Q8WXX7.H529Q], the “mean normalised NGS count” value was found to be 0.0488.

As for TWLSTEADFHPLPPSY [KNSTRN 16-31 mut Q9Y448.S24F], the “mean normalised NGS count” value is 0.0289.

With SHATPPPPYPTDASTV [TP63 535-550 mut Q9H3D4.I549T], the “mean normalised NGS count” value is 11.7.

On to TWLSTEADSHPLPPSY [KNSTRN 16-31 wt], for which the “mean normalised NGS count” value came out at 0.286.

Take LAYPPPPSYPSPKPAM [EGR2 200-215 mut P11161.T215M]: the “mean normalised NGS count” value was 18.8.

With ATTHYHNYLPPPYPGS [RUNX2 414-429 mut Q13950.T420N], the “mean normalised NGS count” value was 5.55.

With LAYPPPPSYPSPKPAT [EGR2 200-215 wt], the “mean normalised NGS count” value is 6.71.

The same assay, now with this note: replicate selections in which the peptide was seen: 5.
With STTSPPSYASVTKPDK [SCN9A 1951-1966 mut Q15858.D1959A], the “mean normalised NGS count” value stood at 3.1.

Take STTSPPSYASVTKPDK [SCN3A 1951-1966 mut Q15858.D1959A]: the “mean normalised NGS count” value is 3.1.

Still in this assay, the particulars now being: replicate selections in which the peptide was seen: 6.
For DATSSTTSPPSYASVT [SCN9A 1947-1962 mut Q15858.D1959A], the “mean normalised NGS count” value was 17.7.

As for SHATPPPPYPTDASIV [TP63 535-550 wt], the “mean normalised NGS count” value worked out at 10.9.

A further assay has as its target T1, DOK1_PTB__Q99704_151_256. Described as above. The settings on record: replicate selections in which the peptide was seen: 3.
On to WTDIENSIVSVERMQD [ABCC6 1223-1238 mut O95255.L1226I], for which the “mean normalised NGS count” value is 3.55.

Staying with this assay, now noted: replicate selections in which the peptide was seen: 4.
On to WKDVEEINGNNYVYID [KIT 557-572 mut P10721.V559D], for which the “mean normalised NGS count” value worked out at 0.224.

As to ALLGGSEIWRDTDFAH [TYR 187-202 mut P14679.I198T], the “mean normalised NGS count” value is 0.00632.

Staying with this assay, now noted: replicate selections in which the peptide was seen: 2.
Consider HAMAARKALDRTTVAA [CSRP3 36-51 mut P50461.S46R], for which the “mean normalised NGS count” value was 3.06.

Consider MDALLGGSEIWRDTDF [TYR 185-200 mut P14679.I198T], for which the “mean normalised NGS count” value amounted to 0.0156.

Another assay concerns the target T2, CSK21_Pkinase__P68400_1_335. The assay is described as above. The following applies: replicate selections in which the peptide was seen: 4.
In the case of WNSLVLADSHGDIITV [GATA4 427-442 mut P43694.A442V], the “mean normalised NGS count” value is 6.23.

In the case of QVLSILHANPQLLAAF [EP300 2069-2084 wt], the “mean normalised NGS count” value worked out at 4.79.

On to LYEHLTLEKSSSSLAV [BRCA2 2362-2377 mut P51587.N2374S], for which the “mean normalised NGS count” value turned out to be 0.191.

Another assay has as its target T3, EPHA3_Pkinase__P29320_606_947. The assay is described as above. The following applies: replicate selections in which the peptide was seen: 4.
As to WNSLVLADSHGDIITV [GATA4 427-442 mut P43694.A442V], the “mean normalised NGS count” value is 5.78.

In a further assay the target is T4, EPHB2_Pkinase__P29323_604_898. The assay is described as above. The settings on record: replicate selections in which the peptide was seen: 3.
Regarding WNSLVLADSHGDIITV [GATA4 427-442 mut P43694.A442V], the “mean normalised NGS count” value was 0.399.

Consider QVLSILHANPQLLAAF [EP300 2069-2084 wt], for which the “mean normalised NGS count” value is 0.632.

The target in another assay is MAP1LC3B_ATG8__Q9GZQ8_2_119. The description is as above. The settings on record: replicate selections in which the peptide was seen: 6.
Consider WTDLENSIVSVERMQH [ABCC6 1223-1238 mut O95255.D1238H], for which the “mean normalised NGS count” value worked out at 3.08.

On to WTDLENSIVSVERMQD [ABCC6 1223-1238 wt], for which the “mean normalised NGS count” value amounted to 3.07.

Another assay concerns the target T3, EPHA3_Pkinase__P29320_606_947. Described as above. The following applies: replicate selections in which the peptide was seen: 3.
For the molecule QVLSILHANPQLLAAF [EP300 2069-2084 wt], the “mean normalised NGS count” value is 2.11.

A further assay addresses MK08_Pkinase__P45983_1_363. The assay is described as above. The settings on record: replicate selections in which the peptide was seen: 3.
QVLSILHANPQLLAAF [EP300 2069-2084 wt]: the “mean normalised NGS count” value is 0.0706.
